Molecules are shown by their SMILES. The list shows a part of the results.

The test system of one assay is HSkMC. As to the kind of experiment: cytotoxicity call (relative viability < 0.9). Conditions: 10 µM.
A further assay deals with HepG2. Put plainly: cytotoxicity call (relative viability < 0.9). Particulars: 10 µM.
For another assay, the system named is S. aureus RN4220. Put plainly: growth inhibition call (relative growth <= 0.2). Particulars: 50 µM.

Turning to `C[C@H](CO)N1C[C@H](C)[C@H](CN(C)Cc2ccc(C(=O)O)cc2)OCCCC[C@H](C)Oc2ccc(NC(=O)Nc3ccc(F)cc3)cc2C1=O`, the cytotoxicity call in the assay with HSkMC and in the assay with HepG2 was “inactive” in each case. For the same compound, in the assay with S. aureus RN4220, the growth inhibition call is “inactive”.
Take `COc1ccc(NC(=O)N(C)C[C@H]2OCCCC[C@@H](C)Oc3ccc(NS(=O)(=O)c4ccc(Cl)cc4)cc3C(=O)N([C@H](C)CO)C[C@@H]2C)cc1`: the cytotoxicity call in the assay on HSkMC and with HepG2 was “inactive” throughout. For the same compound, the growth inhibition call in the assay with S. aureus RN4220 is “inactive”.
For `C[C@@H]1CN([C@@H](C)CO)C(=O)c2cccc(NC(=O)C3CCCCC3)c2O[C@@H]1CN(C)Cc1ccc(Oc2ccccc2)cc1`, the cytotoxicity call in the assay on HSkMC and in the assay on HepG2 was “inactive” in each case. Besides, in the assay on S. aureus RN4220, the growth inhibition call is “inactive”.
On to `Cc1ccc(S(=O)(=O)Nc2ccc3c(c2)C(=O)N([C@H](C)CO)C[C@@H](C)[C@@H](CN(C)Cc2ccc4c(c2)OCO4)OCCCC[C@H](C)O3)cc1`, for which the cytotoxicity call in the assay on HSkMC and in the assay with HepG2 was “inactive” throughout. Besides, in the assay on S. aureus RN4220, the growth inhibition call is “inactive”.
On to `C[C@@H]1CN([C@@H](C)CO)C(=O)c2cccc(NS(=O)(=O)c3ccc(F)cc3)c2O[C@H]1CN(C)S(=O)(=O)c1ccc(F)cc1`, for which the cytotoxicity call in the assay with HSkMC and in the assay on HepG2 was “inactive” throughout. For the same compound, the growth inhibition call in the assay on S. aureus RN4220 was “inactive”.
As for `Cn1cnc(S(=O)(=O)N[C@@H]2C=C[C@H](CC(=O)N3CCN(c4ccccc4)CC3)O[C@H]2CO)c1`, the cytotoxicity call in the assay on HSkMC and in the assay on HepG2 was “inactive” throughout. Further, the growth inhibition call with S. aureus RN4220 is “inactive”.
`CNC[C@@H]1OCCCC[C@@H](C)Oc2ccc(NC(=O)c3ccncc3)cc2C(=O)N([C@@H](C)CO)C[C@H]1C`: the cytotoxicity call with HSkMC and in the assay on HepG2 was “inactive” each time. Moreover, the growth inhibition call in the assay with S. aureus RN4220 was “inactive”.
As to `Cc1ccc(S(=O)(=O)N(C)C[C@H]2Oc3c(NC(=O)c4cc(C)nn4C)cccc3C(=O)N([C@@H](C)CO)C[C@@H]2C)cc1`, the cytotoxicity call with HSkMC and in the assay with HepG2 was “inactive” throughout. In the assay with S. aureus RN4220, the growth inhibition call was “inactive”.
On to `CC(C)(C)c1ccc2oc(CN)nc2c1`, for which the cytotoxicity call in the assay on HSkMC and in the assay on HepG2 was “inactive” throughout. Moreover, the growth inhibition call in the assay with S. aureus RN4220 was “inactive”.
With `O=C(C[C@H]1C=C[C@@H](NC(=O)c2ccncc2)[C@@H](CO)O1)NCc1ccncn1`, the cytotoxicity call in the assay on HSkMC and in the assay on HepG2 was “inactive” throughout. Moreover, the growth inhibition call in the assay with S. aureus RN4220 was “inactive”.
On to `C[C@@H]1CCCCO[C@@H](CN(C)S(=O)(=O)c2cccs2)[C@H](C)CN([C@H](C)CO)C(=O)c2cc(NS(=O)(=O)c3cn(C)cn3)ccc2O1`, for which the cytotoxicity call with HSkMC and in the assay with HepG2 was “inactive” throughout. For the same compound, the growth inhibition call in the assay on S. aureus RN4220 is “inactive”.
As for `COc1ccc(NC(=O)Nc2ccc3c(c2)C(=O)N([C@H](C)CO)C[C@@H](C)[C@H](CN(C)Cc2ccc(C(F)(F)F)cc2)OCCCC[C@@H](C)O3)cc1`, in the assay on HSkMC, the cytotoxicity call was “inactive”. The cytotoxicity call with HepG2 was “active”. For the same compound, in the assay with S. aureus RN4220, the growth inhibition call was “inactive”.
Turning to `C[C@@H]1CN([C@H](C)CO)C(=O)Cc2cc(NC(=O)Nc3ccccc3)ccc2O[C@H]1CN(C)Cc1ccc(C(=O)Nc2ccccc2N)cc1`, the cytotoxicity call with HSkMC and with HepG2 was “inactive” throughout. Besides, the growth inhibition call in the assay on S. aureus RN4220 is “inactive”.
With `CC1(C(=O)O)CCC2(C)CCC3(C)C(=CC(=O)C4C5(C)CCC(OC6OC(C(=O)O)C(O)C(O)C6OC6OC(C(=O)O)C(O)C(O)C6O)C(C)(C)C5CCC43C)C2C1` (stereo not drawn), the cytotoxicity call in the assay on HSkMC and in the assay on HepG2 was “inactive” each time. In addition, in the assay on S. aureus RN4220, the growth inhibition call was “inactive”.
As for `C[C@@H]1CCCCO[C@@H](CN(C)C(=O)C2CCCCC2)[C@H](C)CN([C@H](C)CO)C(=O)c2cc(NC(=O)CCC(F)(F)F)ccc2O1`, the cytotoxicity call in the assay on HSkMC and with HepG2 was “inactive” each time. Further, the growth inhibition call with S. aureus RN4220 was “inactive”.
As to `C[C@H](CO)N1C[C@H](C)[C@@H](CN(C)C(=O)Nc2ccc(C(F)(F)F)cc2)Oc2ccc(NC(=O)Cn3cnnn3)cc2CC1=O`, the cytotoxicity call in the assay on HSkMC and with HepG2 was “inactive” throughout. The growth inhibition call in the assay with S. aureus RN4220 is “inactive”.
Regarding `C[C@@H]1CCCCO[C@H](CN(C)Cc2ccccc2)[C@H](C)CN([C@H](C)CO)C(=O)c2cc(NC(=O)C3CCCCC3)ccc2O1`, the cytotoxicity call with HSkMC and with HepG2 was “inactive” in each case. In the assay on S. aureus RN4220, the growth inhibition call is “inactive”.
As for `C[C@@H]1CCCCO[C@@H](CN(C)S(=O)(=O)c2cccs2)[C@H](C)CN([C@@H](C)CO)C(=O)c2cc(NC(=O)Nc3ccc(F)cc3)ccc2O1`, the cytotoxicity call with HSkMC and in the assay with HepG2 was “inactive” throughout. For the same compound, in the assay with S. aureus RN4220, the growth inhibition call was “inactive”.
In the case of `C[C@H]1CN([C@@H](C)CO)C(=O)c2cc(NC(=O)Cc3cn(C)c4ccccc34)ccc2O[C@H]1CN(C)Cc1ccc(C(=O)Nc2ccccc2N)cc1`, the cytotoxicity call in the assay with HSkMC and in the assay with HepG2 was “inactive” each time. For the same compound, the growth inhibition call with S. aureus RN4220 was “inactive”.
With `C[C@@H]1CCCCO[C@H](CN(C)C(=O)C2CCCCC2)[C@H](C)CN([C@H](C)CO)C(=O)c2cc(NS(=O)(=O)c3ccc(Cl)cc3)ccc2O1`, the cytotoxicity call in the assay on HSkMC and in the assay with HepG2 was “inactive” throughout. Further, the growth inhibition call in the assay on S. aureus RN4220 was “inactive”.
In the case of `C[C@H](CO)N1C[C@H](C)[C@H](CN(C)C(=O)c2cc(-c3ccccc3)on2)OCc2cn(nn2)CCCC1=O`, the cytotoxicity call in the assay with HSkMC and with HepG2 was “inactive” throughout. Also, the growth inhibition call with S. aureus RN4220 was “inactive”.
Consider `Cc1noc(C)c1NC(=O)N(C)C[C@@H]1OCCCC[C@@H](C)Oc2ccc(NC(=O)Nc3ccc(F)cc3)cc2C(=O)N([C@H](C)CO)C[C@H]1C`, for which the cytotoxicity call in the assay on HSkMC and in the assay with HepG2 was “inactive” throughout. The growth inhibition call in the assay with S. aureus RN4220 is “inactive”.
For `C[C@@H]1CN([C@@H](C)CO)C(=O)c2cccc(NC(=O)c3ccc(-c4nccs4)cc3)c2O[C@H]1CN(C)Cc1ccc(Cl)c(Cl)c1`, the cytotoxicity call in the assay on HSkMC and with HepG2 was “inactive” each time. The growth inhibition call in the assay on S. aureus RN4220 is “inactive”.
Take `C=CC[C@H](CC(=O)N(CCO)Cc1ccccc1)C(=O)N[C@@H](COC(=O)[C@@H](CC=C)CC(=O)OC(C)(C)C)Cc1c[nH]c2ccccc12`: the cytotoxicity call with HSkMC and in the assay on HepG2 was “inactive” in each case. In the assay with S. aureus RN4220, the growth inhibition call was “inactive”.
On to `C[C@H](CO)N1C[C@H](C)[C@H](CN(C)C(=O)c2ccncc2)Oc2ncc(-c3ccc(C(=O)N(C)C)cc3)cc2C1=O`, for which the cytotoxicity call with HSkMC and in the assay on HepG2 was “inactive” throughout. In the assay on S. aureus RN4220, the growth inhibition call was “inactive”.
Take `O=C(CCCCCCC(=O)Nc1ccccc1)NO`: in the assay on HSkMC (human skeletal muscle cells), the cytotoxicity call was “inactive”. Further, the cytotoxicity call in the assay on HepG2 was “active”. Besides, in the assay on S. aureus RN4220, the growth inhibition call is “inactive”.

The record behind these values is the antibiotic and cytotoxicity screens of Wong et al. (2023).
